Data reported in PubChem BioAssay AID588453 (National Center for Advancing Translational Sciences (NCATS), 2011).
Where “and” joins values, the source holds several entries; their conditions need not be identical. Equal entries are not always repeated. Hit rate of the full screen: of about 390,000 compounds, about 4,000 (1%) were called active. The inconclusive results got no clear call from the source; some entries with a clear call stand among them for comparison. Calls follow the shape of the dose curve; as a rule, active = well fitted inhibition curve with a large enough effect; inconclusive = small, poorly fitted or top-dose-only effect; inactive = no such curve, though single readings can be large or run the other way. Potencies beside an inconclusive call are fits to weak or partial responses and may not hold up.

Target: Thioredoxin reductase 1, cytoplasmic (Rattus norvegicus) (UniProt O89049)
Assay: qHTS Assay for Inhibitors of Mammalian Selenoprotein Thioredoxin Reductase 1 (TrxR1): qHTS; also: nearly all actives have a fitted effect of over 65% in size
Settings: recombinant rTrxR1, NADPH fluorescence consumption, selenite substrate; series mostly up to 114 µM; activity change, negative = inhibition: at the top concentration
Summary of the method: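 Rat TrxR1 (90 nM in the dispensed reagent) was pre-reduced with 400 uM NADPH for 5 min at room temperature, then incubated with compound for 15 min. After 400 uM selenite was added, NADPH fluorescence (Ex 340/Em 450 nm) was followed for 8 min.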
% is scaled to controls: 0 for no effect and ±100 for the full control effect; potency is read from the fitted curve at half-maximal effect; tags tell the direction and shape of the fitted curve.

UniProt O89049, sequence (O89049 whole entry, looked up): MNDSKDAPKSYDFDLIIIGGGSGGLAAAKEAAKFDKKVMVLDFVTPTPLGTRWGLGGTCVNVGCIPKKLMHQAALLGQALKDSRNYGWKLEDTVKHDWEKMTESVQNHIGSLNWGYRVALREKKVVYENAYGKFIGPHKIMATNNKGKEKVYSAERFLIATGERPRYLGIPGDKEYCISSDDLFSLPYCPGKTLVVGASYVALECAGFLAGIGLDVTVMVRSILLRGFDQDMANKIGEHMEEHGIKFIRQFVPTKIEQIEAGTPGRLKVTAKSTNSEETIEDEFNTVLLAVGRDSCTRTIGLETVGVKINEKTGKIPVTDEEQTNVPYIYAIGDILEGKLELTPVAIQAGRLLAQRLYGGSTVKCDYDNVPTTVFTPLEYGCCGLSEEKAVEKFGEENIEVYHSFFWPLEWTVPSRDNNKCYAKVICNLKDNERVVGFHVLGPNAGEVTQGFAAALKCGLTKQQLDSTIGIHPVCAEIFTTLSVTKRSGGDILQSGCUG

SMILES | Potency | activity change, negative = inhibition
O=C(COc1ccccc1)Nc1c2c(nn1-c1ccc(F)cc1)CS(=O)(=O)C2 | inconclusive: 89.1 µM [inhibitor, single point] | –
Cc1cc(C)n2nc3nc(N4CCCCC4)nc(-c4ccco4)c3c2n1 | active: 10 µM | –
COc1ccccc1C(=O)C1CCCN(C(=O)c2cnn(C(C)C)c2)C1 (stereo unspecified) | inconclusive: 89.1 µM [inhibitor, single point] | –
COc1ccc(NC(=O)c2c(NCc3ccc(C)o3)sc3c2CCC(C)C3)cc1 (stereo unspecified) | inconclusive: 22.4 µM [inhibitor, single point] | –
Cc1nc(N)nc(Cl)c1CCC1OCCO1 | inconclusive: 89.1 µM [inhibitor, partial curve, poor fit] | –
O=C1NN(c2ccc(Cl)c(Cl)c2)C(=O)/C1=C/c1ccc(-c2ccccc2C(=O)O)o1 | inconclusive: 70.8 µM [inhibitor, partial curve] | –
C[C@@H](C(=O)NNC(=O)c1ccc(Cl)cc1)N1C(=O)C2CC=CCC2C1=O (stereo partly specified) | – | inactive: -17.2% [at 2.29 µM]
O=C(NCCCN1CCN(c2ccc(F)cc2)CC1)c1cc2c(s1)-c1ccccc1OC2 | inconclusive: 39.8 µM [inhibitor, single point] | –
CCC(C)n1c(SCC(=O)NC2CCCC2)nc2ccccc2c1=O (stereo unspecified) | – | inactive: 10.2%
COc1ccccc1-c1n[nH]c(=S)n1-c1ccccc1 | inconclusive: 11.2 µM [inhibitor, partial curve] | –
CC(C)C(=O)N(Cc1ccc(F)cc1)Cc1nc2ccccc2c(=O)[nH]1 | inconclusive: 31.6 µM [inhibitor, single point] | –
O=C(c1cccc(Cl)c1)N1CCC(c2nc3c(nnn3Cc3ccc(F)cc3F)c(=O)[nH]2)CC1 | inconclusive: 89.1 µM [inhibitor, single point] | –
COC(=O)CCCC1=CC2=CC(=O)C(C)(OC(=O)c3cccs3)C(=O)C2=CN1Cc1ccco1 (stereo unspecified) | inconclusive: 35.5 µM [inhibitor, partial curve, poor fit] | –
Cc1ccc(C)c(S(=O)(=O)N2CCN(c3nc(-c4cccnc4)nc4ccccc34)CC2)c1 | inconclusive: 10 µM [inhibitor, partial curve] | –
Cc1ccc(-c2ccc(CCC(=O)O)n2-c2cccc(C(=O)O)c2)cc1 | inconclusive: 28.2 µM [inhibitor, partial curve] | –
O=C(Nc1ccc(S(=O)(=O)NCCc2ccccc2)cc1)c1ccco1 | inconclusive: 79.4 µM [inhibitor, single point] | –
CCC(=O)NNc1ccc(Br)cc1 | inconclusive: 31.6 µM [inhibitor, partial curve] | –
O=C1NC(=S)S/C1=C\c1cc2ccccc2nc1N1CCCCC1 | inconclusive: 79.4 µM [inhibitor, partial curve, poor fit] | –
O=C(Nc1cccc(C(=O)O)c1)/C(=C\c1ccco1)NC(=O)c1ccc(Br)o1 | inconclusive: 22.4 µM [inhibitor, full curve] | –
Cc1ccc(C(=O)C2CCNCC2)cc1 | inconclusive: 39.8 µM [inhibitor, partial curve, poor fit] | –
O=c1c2c(nc3c(-c4cccc5ccccc45)c[nH]n13)CCC2 | – | inactive: 10.9%
CCOc1ccc(C(=O)NCCS(=O)(=O)N2CCN(c3cccc(Cl)c3)CC2)cc1 | – | inactive: 15.6% [at 57.1 µM]

SMILES | Potency | activity change, negative = inhibition
CCN1/C(=C2\OC(=S)N(C)C2=O)C=Cc2ccccc21 | – | inactive: 12.8%
CCC1([N+](=O)[O-])COC(c2ccc(OC)cc2)OC1 (stereo unspecified) | inconclusive: 89.1 µM [inhibitor, partial curve, poor fit] | –
CCC1(C)Cc2c(sc3[nH]c(=O)[nH]c(=O)c23)CS1 (stereo unspecified) | inconclusive: 20 µM [inhibitor, single point] | –
C#CCOCCOCCOCCNc1nc(N2CCN(C(=O)C(Cc3cc4ccccc4[nH]3)n3cc(C(N)C(C)CC)nn3)CC2)nc(N2CCN(C(=O)C(Cc3cc4ccccc4[nH]3)n3cc(C(N)C(C)CC)nn3)CC2)n1 (stereo unspecified) | inconclusive: 50.1 µM [inhibitor, partial curve] | –
CC1(C)CC(=O)C2=C(C1)Nc1[nH]c(=S)[nH]c(=O)c1C2c1ccccc1 (stereo unspecified) | inconclusive: 50.1 µM [inhibitor, partial curve] | –
N=c1ccn(Cc2cccc(F)c2)cc1 | – | inactive: 9.11% [at 57.1 µM]
COc1ccc(Nc2ccccc2N)cc1 | – | inactive: 2.26% [at 57.1 µM]
Cc1nc(NC(=O)C(Cl)Cl)sc1C(=O)N(C)C | inconclusive: 70.8 µM [inhibitor, single point] | –
COc1ccc(N=C2NC(=O)/C(=C\C=C\c3ccco3)S2)cc1 | – | inactive: -46.7%
O=C1C[C@H](c2ccc3ccccc3c2)N1S(=O)(=O)c1ccccc1[N+](=O)[O-] | inconclusive: 25.1 µM [inhibitor, partial curve, poor fit] | –
O=C1CC(c2ccccc2Cl)CC(O)=C1C=Nc1ccccc1 (stereo unspecified) | inconclusive: 35.5 µM [inhibitor, single point] | –
CCN1c2ccccc2-c2nc3ccccc3n2C1c1ccco1 (stereo unspecified) | inconclusive: 100 µM [inhibitor, single point] | –
CCc1ccc(-c2cc(C(F)(F)F)n3nc(C(=O)Nc4cnn(Cc5ccccc5C)c4)cc3n2)s1 | inconclusive: 28.2 µM [inhibitor, single point] | –
OCC1(Cc2cccc(Cl)c2)CCCN(Cc2ccc3cc(F)ccc3n2)C1 (stereo unspecified) | inconclusive: 79.4 µM [inhibitor, partial curve] | –
CCCn1cc(C(=O)OCC)c(=O)c2cc(F)c(F)cc21 | inconclusive: 7.08 µM [inhibitor, single point] | –
NC(=O)/C(=C/c1ccco1)NC(=O)c1ccc(Br)o1 | active: 11.2 µM | –
CCC(=O)Nc1nc(=S)ss1 | – | inactive: -23% [at 57.1 µM]
Cn1cc(C(=O)N/N=C/c2ccc([N+](=O)[O-])cc2)c2ccccc21 | – | inactive: 25.5% [at 57.1 µM]
CN(C)c1ccc(/C=C(/C#N)C(=O)NCc2ccccc2)o1 | – | inactive: -26.2%
O=C(N/N=C/c1ccco1)C1CC1c1ccccc1 (stereo unspecified) | inconclusive: 25.1 µM [inhibitor, partial curve, poor fit] | –
O=C(CN1CCCCCCC1)N/N=C/c1ccc([N+](=O)[O-])o1 | inconclusive: 56.2 µM [inhibitor, partial curve, poor fit] | –
O=C1C2C3C=CC(C3=C3CCCCC3)C2C(=O)N1c1ccccc1 (stereo unspecified) | active: 20 µM | –

SMILES | Potency | activity change, negative = inhibition
O=C1CCCC2=C1C(c1cccc(Br)c1)n1nc(-c3ccco3)nc1N2 (stereo unspecified) | inconclusive: 79.4 µM [inhibitor, partial curve] | –
CCSC1(SCC)N=C(N)C2(C#N)C(c3ccccc3)NC3=C(CCC3)C12C#N (stereo unspecified) | inconclusive: 39.8 µM [inhibitor, partial curve, poor fit] | –
COc1ccc(C(=O)COc2ccccc2N2C(=O)C3C4C=CC(C4)C3C2=O)cc1 (stereo unspecified) | – | inactive: 5.93%
O=C(Nc1ccc(F)cc1F)c1noc2c1CCC2 | inconclusive: 5.62 µM [inhibitor, full curve, poor fit] | –
O=C(Nc1nc(-c2ccc(Cl)s2)cs1)c1cccs1 | inconclusive: 35.5 µM [inhibitor, partial curve] | –
COc1ccc(OC)c(-c2cc(C(=O)Nc3c(C)nn(Cc4ccc(Cl)cc4)c3C)no2)c1 | – | inactive: 2.1%
COC(=O)C1=C(C)OC(N)=C(C#N)C1c1c(C)nn(C)c1C (stereo unspecified) | inconclusive: 20 µM [inhibitor, full curve] | –
COc1ccc(/C=N/N2CCOCC2)cc1OCc1ccccc1 | – | inactive: 18.8% [at 57.1 µM]
COc1ccccc1CN1CC(C(=O)N(C)CCCn2nc(C)cc2C)CCC1=O (stereo unspecified) | inconclusive: 89.1 µM [inhibitor, single point] | –
CN1C(=O)/C(=C/c2cccc([N+](=O)[O-])c2)C(=O)N1c1ccccc1 | inconclusive: 14.1 µM [inhibitor, partial curve] | –
O=C(/C=C/c1c(F)cccc1Cl)c1ccc(O)cc1 | inconclusive: 39.8 µM [inhibitor, partial curve, poor fit] | –
O=C1c2ccccc2-c2onc3c(N4CCN(CCO)CC4)cc(N4CCN(C(=O)c5ccco5)CC4)c1c23 | inconclusive: 79.4 µM [inhibitor, single point] | –
COc1ccc(NC(=O)C2CCC(CNS(=O)(=O)c3csc(C(N)=O)c3)CC2)cc1 (stereo unspecified) | – | inactive: 12.5% [at 57.1 µM]
O=C(O)c1ccccc1NC(=O)C1CCCO1 (stereo unspecified) | inconclusive: 5.01 µM [inhibitor, partial curve, poor fit] | –
CCOc1ccc(N2C(=O)CC(Sc3nc(C)cc(C)n3)C2=O)cc1 (stereo unspecified) | – | inactive: 18.8%
COC(=O)c1ccc(C2C(C#N)=C(N)Oc3cc(O)ccc32)cc1 (stereo unspecified) | active: 17.8 µM | –
CCc1cccc(CC)c1N(COC)C(=O)Cn1c(C)nc2ccccc21 | – | inactive: -15.9%
COc1cc(OC)cc(C(=O)NNC(=O)CCNS(=O)(=O)c2ccc(Br)cc2)c1 | inconclusive: 5.62 µM [inhibitor, full curve, poor fit] | –
NC(=O)c1ccc[n+](CC(=O)c2cccc([N+](=O)[O-])c2)c1 | inconclusive: 89.1 µM [inhibitor, single point] | –
CCOC(=O)c1ccc(NC2=CC(c3ccc(F)cc3)N(c3ccc(C(=O)OCC)cc3)C2=O)cc1 (stereo unspecified) | – | inactive: 21%
C=CCN1CCc2cc(O)c(O)cc2C(c2ccccc2)C1 (stereo unspecified) | inconclusive: 21.2 µM [inhibitor, partial curve, poor fit] and inconclusive: 15.8 µM [inhibitor, partial curve, poor fit] | –
CCN1CCN(c2nc(-c3ccccc3)nc3ccccc23)CC1 | inconclusive: 50.1 µM [inhibitor, partial curve, poor fit] | –
